SMILES strings stand for the structures. Structures can show the parent of a compound that is named as a salt. ± gives the standard deviation of the averaged measurements. Over roughly 2,600 compounds, “MBP+ mature oligodendrocyte number relative to DMSO vehicle control” has its median near -0.34; the highest 2% begin near 13. Some of the results follow.
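Also: 10 µM single dose with 3-day oligodendrocyte differentiation.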

The subject of this experiment is jimpy (Plp1 jimpy) mouse iPSC-derived oligodendrocyte progenitor cells. In words: MBP+ mature oligodendrocyte number relative to DMSO vehicle control (SDs above negative control mean); higher = more surviving jimpy oligodendrocytes (rescue). To be noted: 10 µM; 3 days.
For `COc1c2occc2cc2ccc(=O)oc12` [Methoxsalen], the “MBP+ mature oligodendrocyte number” value stood at 0.343.
The same measure for `CN1CCN(C2=Nc3ccccc3Oc3ccc(Cl)cc32)CC1` [Loxapine Succinate]: -2.89.
The same measure for `CN1CCN(C2=Nc3ccccc3Oc3ccc(Cl)cc32)CC1` [Loxapine succinate]: -2.83.
The same measure for `CC(C)CC(N)=O` [Isovaleramide]: 0.407; for `Cn1cc(C(=O)OCC2CCN(CCNS(C)(=O)=O)CC2)c2ccccc21`: 3.57.
In the case of `OC[C@@H](O)[C@@H](O)[C@H](O)[C@@H](O)CO` [Sorbitol], the “MBP+ mature oligodendrocyte number” value was found to be 0.395.
In the case of `CNCC[C@H](Oc1ccc(C(F)(F)F)cc1)c1ccccc1` [S-(+)-Fluoxetine hydrochloride], the “MBP+ mature oligodendrocyte number” value is -4.1.
Next, `CC(=O)OCC(=O)[C@@]1(O)CC[C@H]2[C@@H]3CCC4=CC(=O)CC[C@]4(C)[C@H]3C(=O)C[C@@]21C` [Cortisone acetate]: -0.164; `CC(=O)OCC(=O)[C@@]1(O)CC[C@H]2[C@@H]3CCC4=CC(=O)CC[C@]4(C)[C@H]3C(=O)C[C@@]21C` [Cortisone 21-acetate]: -0.825.
Next, `O=C1c2ccccc2C(=O)c2c(NCCc3ccc(O)cc3)ccc(NCCc3ccc(O)cc3)c21`: -4.41; `FC(F)(F)c1ccc(/C=C/c2nc(COc3ccc(CCCCn4ccnn4)cc3)co2)cc1` [Mubritinib (TAK 165)]: -4.75.
As for `O=C1c2c(O)cc(O)cc2OC(c2ccc(O)c(O)c2)C1O` (stereo not given) [Taxifolin (Dihydroquercetin)], the “MBP+ mature oligodendrocyte number” value stood at 2.07.
As to `CN(C)CCCOc1nn(Cc2ccccc2)c2ccccc12` [Benzydamine HCl], the “MBP+ mature oligodendrocyte number” value is -2.13.
As for `CC(C)(O)CC[C@@H](O)[C@](C)(O)[C@H]1CC[C@@]2(O)C3=CC(=O)[C@@H]4C[C@@H](O)[C@@H](O)C[C@]4(C)[C@H]3CC[C@]12C` [20-Hydroxyecdysone], the “MBP+ mature oligodendrocyte number” value stood at 1.23.
Next, `CNC(=O)c1nn(C)c2c1C(C)(C)Cc1cnc(Nc3ccc(N4CCN(C)CC4)cc3)nc1-2`: less than -6.01.
Consider `CC1CCN=C(N)S1` (racemic) [(±)-AMT hydrochloride], for which the “MBP+ mature oligodendrocyte number” value is 0.0385.
Next, `C[C@H]1C[C@H]2[C@@H]3CCC4=CC(=O)C=C[C@]4(C)[C@@]3(Cl)[C@@H](O)C[C@]2(C)[C@@]1(O)C(=O)CO` [Beclomethasone]: 2.83.
As to `Oc1ccc(O)cc1` [Hydroquinone], the “MBP+ mature oligodendrocyte number” value was -4.36.
The same measure for `CN1CCN(c2cccc(Nc3nc4c(-c5ccc(S(C)(=O)=O)cc5)cccn4n3)c2)CC1`: less than -6.01; for `COc1cc2nc(N3CCN(C(=O)C4CCCO4)CC3)nc(N)c2cc1OC` (stereo not given) [Terazosin HCl]: 1.42; for `CN[C@@H](C)C(=O)N[C@H](C(=O)N1CCC[C@H]1C(=O)Nc1snnc1-c1ccccc1)C1CCCCC1`: -0.861.
Next, `Cc1nc(N=Nc2ccc(C(=O)O)cc2)c(COP(=O)(O)O)c(C=O)c1O`: -1.07; `NS(=O)(=O)c1cc2c(cc1Cl)NCNS2(=O)=O` [Hydrochlorothiazide]: 0.77 ± 0.73.
The same measure for `O=C(NC1CCOCC1)c1ccc(-c2cc(-c3c[nH]nc3-c3ccccn3)ccn2)cc1`: -1.09; for `O=C1C(=O)N(Cc2ccc(Cl)c(Cl)c2)c2ccccc21` [Apoptosis Activator 2]: -4.34; for `COc1cc(/C=C/C(=O)O)ccc1O` [Ferulic Acid]: -0.0525.
Take `C[N+]1(C)CCC(=C(c2ccccc2)c2ccccc2)CC1` [Diphemanil Methylsulfate]: the “MBP+ mature oligodendrocyte number” value turned out to be 19.2.
Next, `CN(C)CCc1c[nH]c2ccc(C[C@H]3COC(=O)N3)cc12` [Zolmitriptan]: 1.69; `CN(C)CCC=C1c2ccccc2C=Cc2ccccc21` [Cyclobenzaprine hydrochloride]: -2.87; `O=C1c2cccc(O)c2C(=O)c2c(O)cc(CO)cc21` [Aloe-emodin]: 2.91.
Next, `O=c1[nH]c(=O)n([C@H]2C[C@H](O)[C@@H](CO)O2)cc1F` [Floxuridine]: -1.72; `C/C(=N\NC(=S)N1CCC1)c1ccccn1`: less than -6.35.
The same measure for `COc1cc(C)c(/C=C/C(C)=C/C=C/C(C)=C/C(=O)O)c(C)c1C` [Acitretin]: 1.94.
For the compound `CC(C)(F)C[C@H](N[C@@H](c1ccc(-c2ccc(S(C)(=O)=O)cc2)cc1)C(F)(F)F)C(=O)NC1(C#N)CC1` [Odanacatib (MK-0822)], the “MBP+ mature oligodendrocyte number” value is -0.415.
Next, `CC(=O)Oc1cc(C(C)C)c(OCCN(C)C)cc1C` [Moxisylyte hydrochloride]: 0.382.
Consider `CC(c1cc2ccccc2s1)N(O)C(N)=O` (stereo not given) [Zileuton], for which the “MBP+ mature oligodendrocyte number” value was -0.24.
The same measure for `C[C@@H]1C(=O)O[C@H]2C[C@@]34[C@H]5C[C@@H](C(C)(C)C)[C@]36[C@@H](OC(=O)[C@@H]6O)O[C@@]4(C(=O)O5)[C@]21O` [Ginkgolide A]: -0.737; for `CC1=C(C(=O)OC2CCCCC2)C(c2ccc([N+](=O)[O-])cc2)C2=C(CC(C)(C)CC2=O)N1` (stereo not given): -4.64.
The same measure for `O=C(O)C(Cc1ccccc1[N+](=O)[O-])=NNc1nc(-c2ccc(Cl)c(Cl)c2)cs1` (mixture of isomers): 2.19.
Turning to `NC(=O)c1ncn([C@@H]2O[C@H](CO)[C@@H](O)[C@H]2O)c1N` [Acadesine], the “MBP+ mature oligodendrocyte number” value turned out to be 2.68.
Next, `CC1=C(/C=C/C(C)=C/C=C/C(C)=C/C(=O)Nc2ccc(O)cc2)C(C)(C)CCC1` [Retinoic acid p-hydroxyanilide]: -4.36.
The same measure for `CCn1cc(C(=O)O)c(=O)c2cc(F)c(N3CCN(C)CC3)cc21` [Pefloxacin Mesylate]: 1.69; for `CCOC(=O)c1ccc(N2NC(=O)C(=Cc3ccc([N+](=O)[O-])o3)C2=O)cc1`: -0.354.
In the case of `CC#CCOC(=O)c1c(C)nc2sc3c(c2c1N)CCC(O)C3` (stereo not given), the “MBP+ mature oligodendrocyte number” value is -3.21.
For the compound `COc1cc2c(cc1O)[C@@H](Cc1ccc(O)c(Oc3ccc(C[C@@H]4c5cc(OC)c(OC)cc5CCN4C)cc3)c1)N(C)CC2` [Daurisoline], the “MBP+ mature oligodendrocyte number” value was less than -3.85.
The same measure for `C[C@@H]1CN(c2c(F)c(N)c3c(=O)c(C(=O)O)cn(C4CC4)c3c2F)C[C@H](C)N1` [Sparfloxacin]: -0.917.
Next, `Cn1c(=O)c2[nH]c(-c3ccc(S(=O)(=O)O)cc3)nc2n(C)c1=O` [8-(p-Sulfophenyl)theophylline]: -0.119; `C[C@@H]1O[C@@H]1P(=O)(O)O` [Phosphomycin disodium]: -0.284.
Next, `CC1(C)[C@@H](O[C@H]2O[C@H](C(=O)O)[C@@H](O)[C@H](O)[C@H]2O[C@@H]2O[C@H](C(=O)O)[C@@H](O)[C@H](O)[C@H]2O)CC[C@]2(C)[C@H]3C(=O)C=C4[C@@H]5C[C@@](C)(C(=O)O)CC[C@]5(C)CC[C@@]4(C)[C@]3(C)CC[C@@H]12` [Ammonium Glycyrrhizinate]: -1.17; `CC1(C)[C@@H](O[C@H]2O[C@H](C(=O)O)[C@@H](O)[C@H](O)[C@H]2O[C@@H]2O[C@H](C(=O)O)[C@@H](O)[C@H](O)[C@H]2O)CC[C@]2(C)[C@H]3C(=O)C=C4[C@@H]5C[C@@](C)(C(=O)O)CC[C@]5(C)CC[C@@]4(C)[C@]3(C)CC[C@@H]12` [Glycyrrhizic Acid]: -0.388; `COc1cc(NC(=O)c2ccc(-c3ccc(Cl)cc3)o2)cc(OC)c1`: 3.68.
In the case of `c1ccc2c(Oc3nc(Nc4ccc(N5CCOCC5)cc4)c4ncn(C5CCCCC5)c4n3)cccc2c1` [Purmorphamine], the “MBP+ mature oligodendrocyte number” value is -5.53.
On to `C[C@]12C=CC(=O)C=C1CC[C@@H]1[C@@H]2C(=O)C[C@@]2(C)[C@H]1CC[C@]2(O)C(=O)CO` [Prednisone], for which the “MBP+ mature oligodendrocyte number” value was -1.19.
Take `C[C@]12C=CC(=O)C=C1CC[C@@H]1C2=CC[C@]2(C)[C@@H](C(=O)CN3CCN(c4cc(N5CCCC5)nc(N5CCCC5)n4)CC3)CC[C@@H]12`: the “MBP+ mature oligodendrocyte number” value is 2.86.
Next, `O=c1ccc2c(OCCCCc3ccccc3)c3ccoc3cc2o1` [Psora-4]: 1.65.
`CCn1cc(C(=O)O)c(=O)c2cc(F)c(N3CCNC(C)C3)c(F)c21` (stereo not given) [Lomefloxacin HCl]: the “MBP+ mature oligodendrocyte number” value came to 0.619.
The same measure for `CCn1cc(C(=O)O)c(=O)c2cc(F)c(N3CCNC(C)C3)c(F)c21` (stereo not given) [Lomefloxacin hydrochloride]: -0.676; for `NC(=O)c1cc[n+](CC2=C(C(=O)O)N3C(=O)[C@@H](NC(=O)C(c4ccccc4)S(=O)(=O)[O-])[C@H]3SC2)cc1` (stereo not given in full) [Cefsulodin sodium salt hydrate]: -0.551.
In the case of `CS(=O)(=O)Nc1ccc([N+](=O)[O-])cc1Oc1ccccc1` [Nimesulide], the “MBP+ mature oligodendrocyte number” value was found to be 0.946 ± 1.2.
For `O=C(O)C1=CCNCC1` [Isoguvacine hydrochloride], the “MBP+ mature oligodendrocyte number” value is 0.764.
Next, `CNC(=C[N+](=O)[O-])NCCSCc1csc(CN(C)C)n1` [Nizatidine]: 1.15; `CC(C)CN(C[C@@H](O)[C@H](Cc1ccccc1)NC(=O)O[C@H]1CCOC1)S(=O)(=O)c1ccc(N)cc1` [Amprenavir]: 1.33; `OC[C@H]1O[C@@H](OCCc2ccc(O)cc2)[C@H](O)[C@@H](O)[C@@H]1O` [Salidroside]: 2.8.
`CNCCC=C1c2ccccc2CCc2ccccc21` [Nortriptyline hydrochloride]: the “MBP+ mature oligodendrocyte number” value was -3.89.
The same measure for `C[C@H]1[C@H](NC(=O)/C(=N\OC(C)(C)C(=O)O)c2csc(N)n2)C(=O)N1S(=O)(=O)O` [Aztreonam]: 2.77; for `C=CCN1CCc2c(cc(O)c(O)c2Cl)C(c2ccccc2)C1` (racemic) [(±)-Chloro-APB hydrobromide]: -2.95.
Next, `CCc1c2c(nc3ccc(OC(=O)N4CCC(N5CCCCC5)CC4)cc13)-c1cc3c(c(=O)n1C2)COC(=O)[C@]3(O)CC` [Irinotecan]: -3.82.
Next, `CCc1c2c(nc3ccc(OC(=O)N4CCC(N5CCCCC5)CC4)cc13)-c1cc3c(c(=O)n1C2)COC(=O)[C@]3(O)CC` [Irinotecan HCl Trihydrate]: -3.63; `Cc1ccc(/C(=C\CN2CCCC2)c2ccccn2)cc1` [Triprolidine hydrochloride]: 1.11.
Consider `C=C1/C(=C\C=C2/CCC[C@]3(C)[C@@H]([C@H](C)CCCC(C)(C)O)CC[C@@H]23)C[C@@H](O)C[C@@H]1O` [Calcitriol], for which the “MBP+ mature oligodendrocyte number” value is -2.6.

(Values after the supplement of paper PMC6135742.)
